Assay results as given in publication PMC4757417, “Functional and Structural Analysis of a β-Glucosidase Involved in β-1,2-Glucan Metabolism in Listeria innocua” (PLoS ONE, 2016).

Test system: Lin1840r R572K mutant
Details: R572K vs WT

SMILES	kcat of R572K relative to WT
OC[C@H]1O[C@@H](O[C@H]2[C@H](O)[C@@H](CO)OC(O)[C@@H]2O)[C@H](O)[C@@H](O)[C@@H]1O (some centres unmarked) [Lam2, laminaribiose]	1.5–3.0 times smaller
OC[C@H]1O[C@@H](O[C@H]2C(O)O[C@H](CO)[C@@H](O)[C@@H]2O)[C@H](O)[C@@H](O)[C@@H]1O (some centres unmarked) [Sop2, sophorose]	1.5–3.0 times smaller
